From publication PMC7819943, “Rice protein-binding microarrays: a tool to detect cis-acting elements near promoter regions in rice”
This is one part of the list.

molecular target: T1, OsWOX13 (Oryza sativa, UniProt Q5QMM3 1-267); assay: protein-binding microarray (RPBM); PBS, 2% BSA, 51.3 ng/ul salmon testes DNA, 50 uM zinc acetate, 200 nM TF, 25 C, 1 h; high values mean tight binding; settings: protein: recombinant; tags: N-terminal polyhistidine and DsRed monomer fusion (pET32a); label: CyDye5-dUTP incorporated in the synthesized complementary strand; 3' TTTTT single-stranded linker to array surface; dsDNA, one strand shown
T1 sequence: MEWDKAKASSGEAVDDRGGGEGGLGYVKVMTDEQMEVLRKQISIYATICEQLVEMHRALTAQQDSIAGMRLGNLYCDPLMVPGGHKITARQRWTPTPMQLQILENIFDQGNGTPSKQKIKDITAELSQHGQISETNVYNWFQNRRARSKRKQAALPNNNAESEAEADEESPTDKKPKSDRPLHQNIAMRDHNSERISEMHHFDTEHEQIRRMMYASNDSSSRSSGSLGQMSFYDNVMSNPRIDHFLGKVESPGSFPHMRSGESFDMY
Method in brief: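 A custom Agilent array was converted to double-stranded form by primer extension with Cy5-dUTP and blocked with 2% BSA. Protein at 200 nM in PBS with 2% BSA, salmon testes DNA and 50 µM zinc acetate was applied for 1 h at 25 °C, followed by washing. The proteins were polyhistidine–DsRed N-terminal fusions of transcription factors, expressed in E. coli BL21-CodonPlus and Ni–NTA-purified. The binding signal is per-feature fluorescence intensity (arbitrary units) from an Axon 4000B scanner.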

Sequence | binding signal
GTAATCTAGATTATATAACTAGATTACTATAAGCTGGATTCGGAGTCACCTAGTGCAG | 6560 fluorescence intensity (a.u.)
GTTTTGATAAATTGATTTAAAACGCTTTATAAGAAGTGTCCGGAGTCACCTAGTGCAG | 43800 fluorescence intensity (a.u.)
ATAGATTTAATGAAAACTAATTTGATGTTTAAATGTTGTGCGGAGTCACCTAGTGCAG | 43800 fluorescence intensity (a.u.)
TGTACACATTAAACACTCAATCATCCAGCTTCAGCTGGGTCGGAGTCACCTAGTGCAG | 6330 fluorescence intensity (a.u.)
ACTTAATTGGATAGATAAATTTAAGTTATATTTAATATGGCGGAGTCACCTAGTGCAG | 64900 fluorescence intensity (a.u.)
TAGAATTACAATTATTTTATGATGGAGGTAGTATTTGCTCCGGAGTCACCTAGTGCAG | 6030 fluorescence intensity (a.u.)
AAAAGATTTGTCTCGTAAATTAGTCGCAATCTACACAATTCGGAGTCACCTAGTGCAG | 9060 fluorescence intensity (a.u.)
AAAATTATATATAATATATATACAATACTTGGGCCAAAATCGGAGTCACCTAGTGCAG | 3300 fluorescence intensity (a.u.)
CTCCAAATTAATTTCACTTATCTAGATGTAAACAATTGATCGGAGTCACCTAGTGCAG | 12100 fluorescence intensity (a.u.)
TACAAATAGACTTGAATAAATGTTTATCTATTTTGTGTTGCGGAGTCACCTAGTGCAG | 16800 fluorescence intensity (a.u.)
CTAAACTAACTGAGTGCTCCCTTAAATCTATCTAGAGTCACGGAGTCACCTAGTGCAG | 7380 fluorescence intensity (a.u.)
ATAATTAGTACCTTATAATAAGTAGCACAATCTTCGTGTTCGGAGTCACCTAGTGCAG | 7900 fluorescence intensity (a.u.)
ATTACAATAGCTTGATTAGGGGAAACTAGAGAGCTCTCCCCGGAGTCACCTAGTGCAG | 9280 fluorescence intensity (a.u.)
TTACATAATTATCATTTATTATATTTTAACTTAATTTATCCGGAGTCACCTAGTGCAG | 19500 fluorescence intensity (a.u.)
ACACAAAACAAATACTTAATTAAATCATTGTTGTTTACTTCGGAGTCACCTAGTGCAG | 5150 fluorescence intensity (a.u.)
GTTTATAATTTGAGTAGACACATCCCATGTAGCATTTTGACGGAGTCACCTAGTGCAG | 7120 fluorescence intensity (a.u.)
ACATATAAATTGGATGGCCACCCTCTTCTTCTTCCTAGTCCGGAGTCACCTAGTGCAG | 26800 fluorescence intensity (a.u.)
GTCCTAATAAATGATTATGACTACTTCATTAGTACTCCAGCGGAGTCACCTAGTGCAG | 23300 fluorescence intensity (a.u.)
CCGTTACAATTTATACTTATCAATTTAGAGGTTTGTTCTACGGAGTCACCTAGTGCAG | 6390 fluorescence intensity (a.u.)
GTGCGTCGATTTATATTAATTAAGAAGTAAGTCATGGCAGCGGAGTCACCTAGTGCAG | 4170 fluorescence intensity (a.u.)
TTCGAGATTGAATTTAGAGTGCAAAGTATTGTAGGTCTGTCGGAGTCACCTAGTGCAG | 22000 fluorescence intensity (a.u.)
GTTAAATAAATCAAATTAAAACACCAGACCTCCAAACTAGCGGAGTCACCTAGTGCAG | 3560 fluorescence intensity (a.u.)
GGCTTAATTAGGTGGAGATTGGAGATCAATAAGTGGAATTCGGAGTCACCTAGTGCAG | 44000 fluorescence intensity (a.u.)
GCTGATTATTAATCCTATGAATTTCCTAGCTTAGCTGATCCGGAGTCACCTAGTGCAG | 49800 fluorescence intensity (a.u.)
GGAATATCCAAGCTTAATTGCCAGCATAATAGACTAGCATCGGAGTCACCTAGTGCAG | 7810 fluorescence intensity (a.u.)
GTTATCAGGATTGAGCACCAGATTGATGGTATGTGATGATCGGAGTCACCTAGTGCAG | 25800 fluorescence intensity (a.u.)
TTTAGATTGCTAAACACACATGTATATATAAGTTTTATTTCGGAGTCACCTAGTGCAG | 5900 fluorescence intensity (a.u.)

Sequence | binding signal
AAATTAACAGGTTTGTTCAACGGTTCAACCAACATCTGCCCGGAGTCACCTAGTGCAG | 11000 fluorescence intensity (a.u.)
AGCTCCTAATTTCATTCTTACCCTGAAAGTAATCTAGCTCCGGAGTCACCTAGTGCAG | 3750 fluorescence intensity (a.u.)
ACAATGGGCTTGATTACAATAGAATATCATTCAATATAGCCGGAGTCACCTAGTGCAG | 4210 fluorescence intensity (a.u.)
CAAATCAAGAAAATTTTCAATAACATTTCAACTATTGTAACGGAGTCACCTAGTGCAG | 3290 fluorescence intensity (a.u.)
GATTATAATGATCATTATTTGCTTTGTGAATGTGTAAAAGCGGAGTCACCTAGTGCAG | 7010 fluorescence intensity (a.u.)
CTCTTTAGACAGAAAACTATAAAGTGTTCCATTCACCTAACGGAGTCACCTAGTGCAG | 4040 fluorescence intensity (a.u.)
TTAATTAATCTATCTAATCAGATTGATTAATGCCTCCCTCCGGAGTCACCTAGTGCAG | 37800 fluorescence intensity (a.u.)
CACTAAATTACCCTCGCCATTTTGACGCCTCTGTCGTGGGCGGAGTCACCTAGTGCAG | 18700 fluorescence intensity (a.u.)
TATGTAATTATTGCTAGTGGATGATGATGTGGCATGGTTGCGGAGTCACCTAGTGCAG | 14700 fluorescence intensity (a.u.)
AGTACGGACTAATTAAATCCCGTGGAATTTTCAAGTCAAACGGAGTCACCTAGTGCAG | 3400 fluorescence intensity (a.u.)
CATCAAATTTAAACAGACAGATGATTCAGTTTATAATGAACGGAGTCACCTAGTGCAG | 21900 fluorescence intensity (a.u.)
ATACATAATTATTTAAGTATCTTTTAATAAAACGAACGGTCGGAGTCACCTAGTGCAG | 22200 fluorescence intensity (a.u.)
GCTGTACTGTAATTACATCTGTCAAACTTTTAGGAGAAAACGGAGTCACCTAGTGCAG | 20400 fluorescence intensity (a.u.)
CCATTTCTTGCTGATGATTGATGATGAACATTTCTAATAGCGGAGTCACCTAGTGCAG | 27400 fluorescence intensity (a.u.)
AGTTGTACACCAATCACCTGAATACTGTAATTCCTGACTTCGGAGTCACCTAGTGCAG | 5500 fluorescence intensity (a.u.)
TCATGAATTCTTCTGTTTTGATTGGATGTTAAGTTGTGTTCGGAGTCACCTAGTGCAG | 13100 fluorescence intensity (a.u.)
ATCACATAAATTTGCATGTTCCCTTATCTTAGATGAAATTCGGAGTCACCTAGTGCAG | 4770 fluorescence intensity (a.u.)
AAACAGATTATAGATTTAAACGCTCCTAGCACTATGCCACCGGAGTCACCTAGTGCAG | 11700 fluorescence intensity (a.u.)
ATTAATTAAGAGTTCAATTAGCTGGGCTGTCATGGAATGGCGGAGTCACCTAGTGCAG | 30700 fluorescence intensity (a.u.)
TGTTATCTCAATCGGACCCTAAATTGGAGCCCGTCACGTGCGGAGTCACCTAGTGCAG | 5520 fluorescence intensity (a.u.)
ACATGATAATACTTACTCAATCAAATACTACGAGCAACCTCGGAGTCACCTAGTGCAG | 4660 fluorescence intensity (a.u.)
GGTTAATTGCCTGTCTGCGTGGGAGTTACCTCCACACAGCCGGAGTCACCTAGTGCAG | 46200 fluorescence intensity (a.u.)
CAAAACTGAGTACATTGGATTGGACCATCTAAAAGGAAATCGGAGTCACCTAGTGCAG | 4580 fluorescence intensity (a.u.)
CCTTGCAATCATTCATCAGAGGAGGAGTTCTACAGTGATGCGGAGTCACCTAGTGCAG | 3760 fluorescence intensity (a.u.)
AAGAACCAATCAACCAACCATGCACCATCCAACGAAAATGCGGAGTCACCTAGTGCAG | 3910 fluorescence intensity (a.u.)
AATTTCACTGTTAACAGATAGGCATGCATTGGGTGAGAGTCGGAGTCACCTAGTGCAG | 3650 fluorescence intensity (a.u.)
ATAGTTTGATTACGTGCATTTTAATTATGTAGAGATTTGGCGGAGTCACCTAGTGCAG | 15000 fluorescence intensity (a.u.)
